# The other results are listed elsewhere or left out.
# B1: PX9896A-bth-573-26-573 (Bacteroides thetaiotaomicron) (protein)
# chain: ETNNLKTKEDMYKYFGTSKSMLTHVYSYMPQGYQLFATSGGIFTEDRYSMRDCASDDGEFGAYADNIQNTNNGNWSPIKTYDDSWTLYRGIRAANSFIAEIAQVDFTRYEHDGQYTNWMKQLKYFPYEARVLRAHYFFELARRYGDIAMPLEVLTEEEANTIGKTPFSEVISFIVSECDDAANNLPDSYVNEPGAEIGRVTKGFAMAVKSKALLYAASKLHNPSMDTELWKKSAKAAIDIINTGLYSLDPQESANNLDSKEVVLMRINGDDSDFEMFNLPLRMTAGTRTSSLIPYSNYPSQNLVDAFETVNGYKVTLENTGWVCEDPAFDPQSPYENRDKRFYRAILANGMSFKDYTIETFKGGADDGIVSQGGSPTGYFLRKYIQEATSFEPGKEAVSKHHWVIYRYAETLLTYAESMVNAFNDVNYTDETYKYSALWAINEVRKNADMPLIPSMGKDEFMERLYNEWRVEFAFEDHRFWDVRRWKIADTTQRELYGVKIEKQADGTFNFYKNLYETRNWRDCMYLYPIPQSELYKNTNLNPQNTGW
# Legend:
# Assay in all cases: glycan array binding signal (z-score within array); higher = stronger binding
# Conditions in all cases: glycan notation: IUPAC condensed, linker removed
# [1] = target: Gal(b1-3)GlcNAc(b1-2)Man(a1-3)[Gal(b1-3)GlcNAc(b1-2)Man(a1-6)]Man(b1-4)GlcNAc(b1-4)[Fuc(a1-6)]GlcNAc
# Outline: (§1)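 The binding signal is a Z-score computed within each array and averaged over linkers. Arrays of the same protein sequence at different concentrations or buffers were also averaged together. Data originate from 3228 arrays in the Consortium for Functional Glycomics database, kept only where the protein sequence was available.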
# [2] = target: Gal(b1-3)GlcNAc(b1-2)Man(a1-3)[GlcNAc(b1-4)][Gal(b1-3)GlcNAc(b1-2)Man(a1-6)]Man(b1-4)GlcNAc(b1-4)GlcNAc
# Outline: as §1
# [3] = target: Gal(b1-3)GlcNAc(b1-2)[Gal(b1-3)GlcNAc(b1-6)]Man(a1-6)[Gal(b1-3)GlcNAc(b1-2)Man(a1-3)]Man(b1-4)GlcNAc(b1-4)GlcNAc
# Outline: as §1
# [4] = target: Gal(b1-3)GlcNAc(b1-3)Gal(b1-3)GlcNAc
# Outline: as §1
# [5] = target: Gal(b1-3)GlcNAc(b1-3)Gal(b1-4)Glc
# Outline: as §1
# [6] = target: Gal(b1-3)GlcNAc(b1-3)Gal(b1-4)GlcNAc
# Outline: as §1
# [7] = target: Gal(b1-3)GlcNAc(b1-3)Gal(b1-4)GlcNAc(b1-2)Man(a1-3)[Gal(b1-3)GlcNAc(b1-3)Gal(b1-4)GlcNAc(b1-2)Man(a1-6)]Man(b1-4)GlcNAc(b1-4)GlcNAc
# Outline: as §1
# [8] = target: Gal(b1-3)GlcNAc(b1-3)Gal(b1-4)GlcNAc(b1-2)[Gal(b1-3)GlcNAc(b1-3)Gal(b1-4)GlcNAc(b1-6)]Man(a1-6)[Gal(b1-3)GlcNAc(b1-3)Gal(b1-4)GlcNAc(b1-2)Man(a1-3)]Man(b1-4)GlcNAc(b1-4)[Fuc(a1-6)]GlcNAc
# Outline: as §1
# [9] = target: Gal(b1-3)GlcNAc(b1-3)Gal(b1-4)GlcNAc(b1-3)Gal(b1-4)GlcNAc(b1-2)[Gal(b1-3)GlcNAc(b1-3)Gal(b1-4)GlcNAc(b1-3)Gal(b1-4)GlcNAc(b1-6)]Man(a1-6)[Gal(b1-3)GlcNAc(b1-3)Gal(b1-4)GlcNAc(b1-3)Gal(b1-4)GlcNAc(b1-2)Man(a1-3)]Man(b1-4)GlcNAc(b1-4)[Fuc(a1-6)]GlcNAc
# Outline: as §1
# [10] = target: Gal(b1-3)GlcNAc(b1-3)Gal(b1-4)GlcNAc(b1-6)[Gal(b1-3)GlcNAc(b1-3)]Gal(b1-4)Glc
# Outline: as §1
# [11] = target: Gal(b1-3)GlcNAc(b1-3)Gal(b1-4)[Fuc(a1-3)]GlcNAc
# Outline: as §1
# [12] = target: Gal(b1-3)GlcNAc(b1-3)Gal(b1-4)[Fuc(a1-3)]GlcNAc(b1-6)[Gal(b1-3)GlcNAc(b1-3)]Gal(b1-4)Glc
# Outline: as §1
# [13] = target: Gal(b1-3)GlcNAc(b1-3)GalNAc
# Outline: as §1
# [14] = target: Gal(b1-3)GlcNAc(b1-6)Gal(b1-4)GlcNAc
# Outline: as §1
# [15] = target: Gal(b1-3)GlcNAc(b1-6)GalNAc
# Outline: as §1
# [16] = target: Gal(b1-3)GlcNAc(b1-6)[Gal(b1-3)]GalNAc
# Outline: as §1
# Gal(b1-3)GlcNAc6S = target: Gal(b1-3)GlcNAc6S
# Outline: as §1
# [17] = target: Gal(b1-3)[Fuc(a1-4)]GlcNAc
# Outline: as §1
# [18] = target: Gal(b1-3)[Fuc(a1-4)]GlcNAc(b1-2)Man
# Outline: as §1
# [19] = target: Gal(b1-3)[Fuc(a1-4)]GlcNAc(b1-2)Man(a1-3)[Gal(b1-3)[Fuc(a1-4)]GlcNAc(b1-2)Man(a1-6)]Man(b1-4)GlcNAc(b1-4)[Fuc(a1-6)]GlcNAc
# Outline: as §1
# [20] = target: Gal(b1-3)[Fuc(a1-4)]GlcNAc(b1-3)Gal(b1-3)[Fuc(a1-4)]GlcNAc
# Outline: as §1
# [21] = target: Gal(b1-3)[Fuc(a1-4)]GlcNAc(b1-3)Gal(b1-4)[Fuc(a1-3)]GlcNAc
# Outline: as §1
# [22] = target: Gal(b1-3)[Fuc(a1-4)]GlcNAc(b1-6)GalNAc
# Outline: as §1
# [23] = target: Gal(b1-3)[GlcNAc(b1-6)]GalNAc
# Outline: as §1
# [24] = target: Gal(b1-3)[Neu5Ac(a2-6)]GalNAc
# Outline: as §1
# [25] = target: Gal(b1-3)[Neu5Ac(a2-6)]GlcNAc(b1-4)Gal(b1-4)Glc
# Outline: as §1
# [26] = target: Gal(b1-3)[Neu5Ac(b2-6)]GalNAc
# Outline: as §1
# Gal(b1-4)Gal = target: Gal(b1-4)Gal
# Outline: as §1
# [27] = target: Gal(b1-4)GalNAc(a1-3)[Fuc(a1-2)]Gal(b1-4)GlcNAc
# Outline: as §1
# [28] = target: Gal(b1-4)GalNAc(b1-3)[Fuc(a1-2)]Gal(b1-4)GlcNAc
# Outline: as §1
binder,measurement,setting,value
B1,glycan array binding signal (z-score),[1],0.143
same,glycan array binding signal (z-score),[2],2.06
same,glycan array binding signal (z-score),[3],-0.293
same,glycan array binding signal (z-score),[4],0.195
same,glycan array binding signal (z-score),[5],-0.989
same,glycan array binding signal (z-score),[6],-0.276
same,glycan array binding signal (z-score),[7],0.372
same,glycan array binding signal (z-score),[8],3.52
same,glycan array binding signal (z-score),[9],0.294
same,glycan array binding signal (z-score),[10],0.153
same,glycan array binding signal (z-score),[11],0.079
same,glycan array binding signal (z-score),[12],0.476
same,glycan array binding signal (z-score),[13],-0.802
same,glycan array binding signal (z-score),[14],-0.322
same,glycan array binding signal (z-score),[15],-0.076
same,glycan array binding signal (z-score),[16],0.949
same,glycan array binding signal (z-score),Gal(b1-3)GlcNAc6S,-0.292
same,glycan array binding signal (z-score),[17],-0.432
same,glycan array binding signal (z-score),[18],-0.522
same,glycan array binding signal (z-score),[19],0.005
same,glycan array binding signal (z-score),[20],0.01
same,glycan array binding signal (z-score),[21],-0.328
same,glycan array binding signal (z-score),[22],-0.38
same,glycan array binding signal (z-score),[23],-0.554
same,glycan array binding signal (z-score),[24],-0.756
same,glycan array binding signal (z-score),[25],-0.406
same,glycan array binding signal (z-score),[26],-0.266
same,glycan array binding signal (z-score),Gal(b1-4)Gal,-0.038
same,glycan array binding signal (z-score),[27],-1.02
same,glycan array binding signal (z-score),[28],-0.814
